± gives the uncertainty stated by the source. In all, about 9,900 compounds were measured (“viability index relative to DMSO control”: median about 1, lowest 2% from about 0.85 on). The list shows a part of the results.
System: Plasmodium falciparum NF54 stage V gametocytes
Experiment: viability index relative to DMSO control (fraction); higher = less gametocyte killing
Conditions: 2.5 µM, library set: Broad Institute DOS, incubation time: 72 h
Procedure, shortened: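 P. falciparum NF54 stage V gametocytes (serum-free medium, 0.75% gametocytemia, 1.25% hematocrit) were exposed to compound at 2.5 µM for 72 hr at 37°C under low oxygen, then stained with MitoTracker Red CMXRos and saponin for one to two hours. Red particles of 20–70 µm2 in one field per well were counted, and the viability index is that count scaled to the plate mean of solvent-only wells.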

Row | SMILES | viability index
1 | CO[C@@H]1CN(C)C(=O)c2cc(NC(=O)C3CCOCC3)ccc2OC[C@@H](C)NC[C@@H]1C | 1.01 ± 0.015
2 | COCC(=O)Nc1ccc2c(c1)[C@@H]1C[C@@H](CC(=O)N[C@@H](C)c3ccccc3)O[C@H](CO)[C@@H]1O2 | 1.12 ± 0.022
3 | C[C@@H]1CN([C@@H](C)CO)C(=O)Cc2cc(NC(=O)c3ccncc3)ccc2O[C@@H]1CN(C)C(=O)Nc1ccc(F)cc1 | 0.953 ± 0.15
4 | CCCC#Cc1ccc([C@H]2[C@@H](C#N)N(C(=O)CN3CCOCC3)[C@H]2CO)cc1 | 1.074 ± 0.01
5 | COc1cccc(S(=O)(=O)N2C[C@H](O)COC[C@H]3O[C@H](CC(=O)N4CCN(c5ccccc5)CC4)CC[C@@H]32)c1 | 0.942 ± 0.086
6 | C/C=C/c1ccccc1[C@@H]1[C@H](C#N)N(C(=O)Cc2ccccn2)[C@H]1CO | 1.11 ± 0.025
7 | CC(C)(O)C#Cc1cccc(-c2nc(C(=O)N[C@@H]3CCN(Cc4ccccc4)C3)cc3c2[C@H](CCO)N(S(=O)C(C)(C)C)C3)c1 (stereo partly specified) | 0.921 ± 0.019
8 | O=C(CC(F)(F)F)N1C[C@@H]2[C@H](c3ccccc31)[C@H](CO)N2C(=O)c1ccncc1 | 1.04 ± 0.039
9 | COCC(=O)N1C[C@]2(CN(Cc3ccccc3)C2)c2c([C@@H]1CO)n(C)c1cc(OC)ccc21 | 1.08 ± 0.085
10 | O=C(CN1CCOCC1)N1CC(=O)N2[C@H](C1)[C@H](c1ccc(C3=CCCCC3)cc1)[C@@H]2CO | 1.02 ± 0.035
11 | COc1ccccc1CN1[C@H](CO)[C@@H]2c3ccccc3N(C(=O)c3cccnc3)C[C@@H]21 | 1.08 ± 0.02
12 | COc1ccccc1S(=O)(=O)N(C)C[C@H]1OCc2cn(nn2)CCCC(=O)N([C@H](C)CO)C[C@H]1C | 1.04 ± 0.018
13 | COc1ccc2c3c([nH]c2c1)[C@@H](CO)N(CC1CCCC1)C[C@]31CN(C)C1 | 0.986 ± 0.041
14 | O=C(C[C@@H]1CC[C@@H]2NC[C@@H](O)COC[C@H]2O1)NC1Cc2ccccc2C1 | 1.05 ± 0.02
15 | Cc1ccc(-c2ccccc2[C@H]2[C@@H](C#N)N(C(=O)c3cccc(F)c3)[C@H]2CO)cc1 | 1.13 ± 0.053
16 | CNC[C@@H]1Oc2ccc(NC(=O)CCC(F)(F)F)cc2C(=O)N([C@H](C)CO)C[C@H]1C | 0.984 ± 0.14
17 | O=C(C[C@H]1CC[C@H](NC(=O)C2CC2)[C@@H](CO)O1)Nc1ccccc1 | 0.981 ± 0.031
18 | O=C(NCC[C@H]1CC[C@@H](NS(=O)(=O)Cc2ccccc2)[C@H](CO)O1)C1CCCCC1 | 1.02 ± 0.02
19 | O=C(C[C@@H]1CC[C@H](NS(=O)(=O)c2ccccc2F)[C@H](CO)O1)NCCCN1CCOCC1 | 0.941 ± 0.04
20 | Cc1ccc(S(=O)(=O)N[C@@H]2CC[C@H](CC(=O)NCc3ccncn3)O[C@@H]2CO)cc1 | 1.04 ± 0.07
21 | Cc1ccccc1S(=O)(=O)N1[C@H](C#N)[C@@H](c2ccc(C#CC3CC3)cc2)[C@@H]1CO | 1.06 ± 0.028
22 | C[C@@H](NC(=O)C[C@H]1CC[C@H]2[C@@H](COc3ccc(NS(=O)(=O)c4ccc(Cl)cc4)cc3C(=O)N2C)O1)c1ccccc1 | 0.953 ± 0.16
23 | CCCC#Cc1ccc([C@@H]2[C@H](CO)N3C(=O)CN(C(=O)c4cccnc4)C[C@@H]23)cc1 | 1.12 ± 0.035
24 | CN1C(=O)c2cc(NC(=O)c3cscn3)ccc2OC[C@H]2O[C@@H](CC(=O)N3CCOCC3)CC[C@@H]21 | 1.11 ± 0.11

Row | SMILES | viability index
25 | O=C(C[C@@H]1CC[C@@H]2[C@H](COC[C@H](O)CN2S(=O)(=O)c2ccccc2F)O1)N1CCC(Cc2ccccc2)CC1 | 1.0556 ± 0.00047
26 | CO[C@H]1CC[C@H]2CCOc3c(C#N)cccc3C(=O)N(C)C[C@H](OC)[C@H](C)C(=O)N(C)C[C@@H]1O2 | 1.01 ± 0.047
27 | CCC(=O)N1C[C@]2(CCN(CC2)C(=O)Cc2ccccc2)c2c([C@H]1CO)n(C)c1cc(OC)ccc21 | 0.996 ± 0.055
28 | CO[C@H]1CN(C)C(=O)c2cc(NC(C)=O)ccc2OC[C@H](C)N(S(C)(=O)=O)C[C@H]1C | 1.07 ± 0.09
29 | C[C@H](CO)N1C[C@H](C)[C@H](CN(C)Cc2ccc(C(=O)O)cc2)Oc2ccc(NC(=O)CCN3CCOCC3)cc2CC1=O | 1.03 ± 0.024
30 | O=C(NC1CCCC1)N1CCCCN2[C@H](CO)[C@H](c3ccc(-c4cccnc4)cc3)[C@H]2C1 | 1.01 ± 0.052
31 | Cc1ccc(-c2ccc([C@@H]3[C@H]4CNC[C@@H]3N4C(=O)NC(C)C)cc2)cc1 | 1.12 ± 0.027
32 | COc1ccc2c3c([C@H](CO)N(C[C@]33CN(Cc4ccccc4F)C3)C(=O)Nc3ccc(F)cc3)n(C)c2c1 | 1 ± 0.091
33 | COc1ccc(CN2C[C@@H](O)COC[C@@H]3O[C@@H](CC(=O)N(C)C)CC[C@H]32)cc1 | 1.12 ± 0.013
34 | CO[C@@H]1CC[C@@H]2CCOc3ccc(C#N)cc3C(=O)N(C)C[C@@H](c3ccccc3)CC(=O)N(C)C[C@H]1O2 | 1.02 ± 0.075
35 | COc1ccc(S(=O)(=O)Nc2cccc3c2O[C@@H](CN(C)CC2CCCCC2)[C@@H](C)CN([C@@H](C)CO)C3=O)cc1 | 0.969 ± 0.07
36 | COc1ccccc1-c1ccc([C@H]2[C@H]3CNC[C@@H]2N3S(=O)(=O)c2ccc(F)cc2)cc1 | 1.05 ± 0.071
37 | O=C(c1ccccc1F)N1CC(=O)N2[C@H](CO)[C@@H](c3ccc(C#Cc4ccccc4)cc3)[C@@H]2C1 | 0.982 ± 0.024
38 | Cc1ccccc1-c1ccc([C@H]2[C@@H](CO)N3CCCCN(S(=O)(=O)Cc4ccccc4)C[C@H]23)cc1 | 0.952 ± 0.028
39 | COc1ccccc1-c1ccc2c(c1)O[C@@H](CN(C)CC1CCOCC1)[C@@H](C)CN([C@@H](C)CO)S2(=O)=O | 1.01 ± 0.08
40 | CC(=O)N1[C@H](CO)[C@H](c2ccccc2)[C@@H]1CN(CC(C)C)C(=O)c1ccccn1 | 1.05 ± 0.012
41 | O=C(C[C@H]1CC[C@@H]2[C@H](COC[C@H](O)CN2Cc2ccc(Oc3ccccc3)cc2)O1)N1CCN(c2ccccc2)CC1 | 1.08 ± 0.12
42 | CO[C@@H]1CN(C)C(=O)c2ccc(NC(=O)C3CCC3)cc2OC[C@@H](C)N(Cc2ccccn2)C[C@H]1C | 1.1 ± 0.033
43 | CN1c2ccc(-c3cccc(C#N)c3)cc2[C@@H]2[C@@H](CCN2C(=O)Cc2ccccn2)[C@@H]1CO | 0.9765 ± 0.0085
44 | Cc1noc(C)c1S(=O)(=O)N(C)C[C@H]1Oc2c(NC(=O)c3ccc(-c4nccs4)cc3)cccc2C(=O)N([C@H](C)CO)C[C@@H]1C | 0.976 ± 0.013
45 | COc1ccc(C#Cc2ccc([C@@H]3[C@H]4CN(C(=O)c5ccc(F)cc5)CC(=O)N4[C@H]3CO)cc2)cc1 | 1.02 ± 0.073
46 | CO[C@@H]1CC[C@@H]2CCOc3ccc(C#N)cc3C(=O)N(C)C[C@H](c3ccccc3)CC(=O)N(C)C[C@H]1O2 | 1.02 ± 0.058
47 | C/C=C/c1ccc([C@H]2[C@@H]3CN(C(=O)NC4CCCCC4)C[C@H]2N3)cc1 | 1.05 ± 0.056
48 | O=C(Nc1ccccc1Cl)N1C[C@@H]2[C@H](c3ccccc31)[C@H](CO)N2C(=O)c1cccnc1 | 1.07 ± 0.012

Row | SMILES | viability index
49 | N#C[C@H]1[C@H](c2ccccc2-c2cccc(F)c2)[C@@H](CO)N1C(=O)C1CC1 | 1.15 ± 0.019
50 | O=C1CNC[C@H]2[C@H](c3ccc(C4=CCCC4)cc3)[C@H](CO)N12 | 0.995 ± 0.021
51 | C[C@H](NC(=O)C[C@H]1C[C@@H]2c3cc(NS(=O)(=O)c4ccc(F)cc4)ccc3O[C@@H]2[C@H](CO)O1)c1ccccc1 | 1.07 ± 0.011
52 | C/C=C/c1ccc2c(c1)[C@@H]1[C@@H](CCN1C(=O)Cc1ccncc1)[C@@H](CO)N2C | 1.11 ± 0.031
53 | Cc1noc(C)c1NC(=O)Nc1ccc2c(c1)C(=O)N(C)[C@@H]1CC[C@H](CC(=O)N[C@H]3CCN(Cc4ccccc4)C3)O[C@H]1CO2 | 1.13 ± 0.1
54 | Cc1ccccc1-c1ccc([C@H]2[C@H]3CNC[C@@H]2N3S(=O)(=O)c2ccccc2)cc1 | 1.07 ± 0.014
55 | COc1cccc(NC(=O)N2CC(=O)N3[C@@H](CO)[C@@H](c4ccc(C#CCC5CCCC5)cc4)[C@@H]3C2)c1 | 1.01 ± 0.018
56 | COc1ccc(S(=O)(=O)Nc2ccc3c(c2)CC(=O)N([C@H](C)CO)C[C@H](C)[C@@H](CN(C)Cc2ccc(C(=O)Nc4ccccc4N)cc2)O3)cc1 | 1 ± 0.027
57 | O=C(C[C@@H]1C=C[C@@H](NC(=O)c2cnccn2)[C@H](CO)O1)NCc1ccccc1F | 1.04 ± 0.018
58 | COc1ccc2c3c([C@@H](CO)N(Cc4ccccc4F)C[C@]33CCN(CC3)C(=O)C3CCOCC3)n(C)c2c1 | 1.01 ± 0.085
59 | CC(C)[C@@H]1COCc2cnnn2CCC[C@H](C)C(=O)N1 | 1.09 ± 0.072
60 | CCc1cnc(N2[C@H](C#N)[C@@H](c3ccc(C4=CCCCC4)cc3)[C@H]2CO)s1 | 1.23 ± 0.053
61 | COCC(=O)N1[C@H](CO)[C@@H](c2ccccc2-c2ccccc2F)[C@@H]1C#N | 1.1 ± 0.012
62 | O=C(Cc1ccccn1)N[C@@H]1CC[C@@H](CCNS(=O)(=O)c2cccc(F)c2)O[C@@H]1CO | 1.08 ± 0.016
63 | C/C=C/c1ccc2n(c1=O)C[C@@H]1[C@@H](CO)[C@H](C(=O)N3CCc4ccccc4C3)[C@H]2N1Cc1cocn1.C/C=C\c1ccc2n(c1=O)C[C@@H]1[C@@H](CO)[C@H](C(=O)N3CCc4ccccc4C3)[C@H]2N1Cc1cocn1 | 1.048 ± 0.0066
64 | C[C@H]1CN([C@@H](C)CO)C(=O)c2ccccc2-c2ccccc2CO[C@H]1CN(C)Cc1cccc2c1OCCCO2 | 0.825 ± 0.16
65 | CN1C(=O)c2cc(NC(=O)C3CCOCC3)ccc2OC[C@H]2O[C@@H](CC(=O)Nc3ccc4c(c3)CCCC4)CC[C@@H]21 | 1.05 ± 0.019
66 | COC(=O)C[C@@H]1CC[C@@H]2[C@@H](COc3ccc(NS(=O)(=O)c4ccc(C)cc4)cc3C(=O)N2C)O1 | 1.13 ± 0.066
67 | CC(=O)N1CCCCN2[C@H](CO)[C@H](c3ccc(-c4ccccc4)cc3)[C@H]2C1 | 1.01 ± 0.089
68 | Cc1cccc(-c2ccc([C@H]3[C@@H]4CN(Cc5cccc(F)c5)C[C@H]3N4)cc2)c1 | 1.053 ± 0.0043
69 | O=C(NC[C@@H]1N[C@@H](CO)[C@@H]1c1ccc(-c2ccccc2F)cc1)c1ccccn1 | 1.06 ± 0.067
70 | CCCC(=O)Nc1ccc2c(c1)OC[C@H](C)N(CC1CCOCC1)C[C@@H](C)[C@@H](OC)CN(C)C2=O | 1.03 ± 0.03
71 | CC(C)CC#Cc1ccc([C@H]2[C@@H](CO)N3C(=O)CN(C(=O)c4cccc(F)c4)C[C@H]23)cc1 | 0.982 ± 0.013

From the supplement of paper PMC4723716
